From article PMC4336329 (PLoS ONE, 2015)
Screen size: about 310,000 compounds; about 2,200 (0.71%) showed an effect of 50% or more. The effect is printed as a negative number. Some of the results follow.

These molecules were tested against human ether-à-go-go-related gene (hERG) potassium channel (human, UniProt Q12809) (assay: primary screen, population patch clamp on CHO cells stably expressing hERG).
Chain of human ether-à-go-go-related gene (hERG) potassium channel (Q12809 whole entry, looked up): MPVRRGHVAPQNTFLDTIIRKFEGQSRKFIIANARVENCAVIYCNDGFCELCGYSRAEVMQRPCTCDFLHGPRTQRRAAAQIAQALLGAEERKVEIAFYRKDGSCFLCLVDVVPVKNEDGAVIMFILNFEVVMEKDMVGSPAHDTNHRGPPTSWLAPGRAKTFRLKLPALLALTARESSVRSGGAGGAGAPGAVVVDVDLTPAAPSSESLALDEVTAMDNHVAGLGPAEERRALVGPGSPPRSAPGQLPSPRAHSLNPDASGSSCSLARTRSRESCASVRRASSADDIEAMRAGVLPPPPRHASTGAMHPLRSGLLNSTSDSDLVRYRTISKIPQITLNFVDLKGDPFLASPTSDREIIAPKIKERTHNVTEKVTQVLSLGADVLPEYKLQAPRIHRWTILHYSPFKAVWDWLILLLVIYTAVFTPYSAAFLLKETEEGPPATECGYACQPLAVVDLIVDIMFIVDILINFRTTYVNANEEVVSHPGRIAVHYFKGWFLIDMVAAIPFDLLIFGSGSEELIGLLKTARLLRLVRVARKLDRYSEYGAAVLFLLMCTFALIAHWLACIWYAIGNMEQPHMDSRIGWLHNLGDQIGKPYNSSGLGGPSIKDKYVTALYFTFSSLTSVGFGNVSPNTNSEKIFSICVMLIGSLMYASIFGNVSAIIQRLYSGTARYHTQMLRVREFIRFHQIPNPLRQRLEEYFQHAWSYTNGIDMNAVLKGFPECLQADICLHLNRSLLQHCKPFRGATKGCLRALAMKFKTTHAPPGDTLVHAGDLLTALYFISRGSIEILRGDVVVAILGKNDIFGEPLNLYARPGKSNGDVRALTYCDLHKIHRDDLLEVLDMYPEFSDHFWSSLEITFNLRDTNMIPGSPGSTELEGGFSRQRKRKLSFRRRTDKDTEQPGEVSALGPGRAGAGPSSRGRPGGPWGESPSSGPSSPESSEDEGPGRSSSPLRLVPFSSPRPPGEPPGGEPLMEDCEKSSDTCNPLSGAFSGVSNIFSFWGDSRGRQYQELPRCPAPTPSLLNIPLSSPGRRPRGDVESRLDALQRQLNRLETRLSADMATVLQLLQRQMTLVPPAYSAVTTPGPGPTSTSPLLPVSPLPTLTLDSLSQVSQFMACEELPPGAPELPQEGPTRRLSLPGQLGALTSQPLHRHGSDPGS

Going from `CC(C)OC(=O)C1C(=O)CC(C)(O)C(C(=O)OC(C)C)C1c1ccc(F)cc1` (stereo not drawn) to `CC(C)(C)NC(=O)C(c1ccc(F)cc1)N(CC1CCCO1)C(=O)c1csnn1` (stereo not drawn), the “hERG current change (%, negative = inhibition) at 1uM” value rises from 9.57% to 28%.

First: O=C(COc1ccc2c3c(c(=O)oc2c1)CCC3)NCc1ccccn1
Second: CCCCOc1ccc(C(=O)NCC(=O)NCc2ccccn2)cc1
The “hERG current change (%, negative = inhibition) at 1uM” value of the first is lower: 14.6% for the first, 21.4% for the second.

First: NC(=O)CSc1ccc(S(=O)(=O)N2CCCCC2)cn1
Second: COCCCN1C(=O)C(=O)/C(=C(/O)c2ccc(S(=O)(=O)N3CCCCC3)cc2)C1c1cccc(OC)c1 (stereo not drawn)
The “hERG current change (%, negative = inhibition) at 1uM” value of the first is higher: 5.73% for the first, 2.22% for the second.

Compared with `NC(=O)C1CCCN(C(=O)CCc2nnc(C3(c4ccc(Cl)cc4)CCC3)o2)C1` (stereo not drawn), `Cn1c(COc2cccc3ccccc23)nnc1SCC(=O)OC1CCCCC1` is lower in “hERG current change (%, negative = inhibition) at 1uM” value: 9.52% for the first, 8.98% for the second.

First: O=C(CSc1nnc(NC(=O)c2ccccc2Cl)s1)Nc1ccc2c(c1)oc1ccccc12
Second: CCOc1ccc(C(=O)Nc2ccccc2-c2ccccc2)cc1Cl
The “hERG current change (%, negative = inhibition) at 1uM” value of the first is higher: 15.3% for the first, 12.6% for the second.

Going from `CCOc1ccc(N(CC(=O)Nc2ccc(C)cc2C)S(C)(=O)=O)cc1` to `COc1ccc(S(=O)(=O)N(C)c2ccc(OCC(=O)Nc3cc(C)on3)cc2)cc1`, the “hERG current change (%, negative = inhibition) at 1uM” value falls from 13.5% to 2.34%.

Going from `CC[C@]1(c2ccccc2)C(=O)N(C(=O)OC)N1C(=O)OC` to `CC(NC(=O)CN1C(=O)NC(c2ccccc2)(c2ccccc2)C1=O)c1cccs1` (stereo not drawn), the “hERG current change (%, negative = inhibition) at 1uM” value falls from 22.5% to 19.7%.

Compared with `COc1ccccc1C1CCN(C(=O)c2ccc(C(C)(C)C)cc2)CC1`, `COc1ccc(OC)c(CC(=O)N(C)C2CCCN(Cc3ccccc3F)C2)c1` (stereo not drawn) is lower in “hERG current change (%, negative = inhibition) at 1uM” value: 18.3% for the first, 15.5% for the second.

First: O=C(COc1ccc(/C=N/NC(=O)c2ccccc2O)cc1)Nc1ccc([N+](=O)[O-])cc1
Second: O=C(COC(=O)c1cc(Br)ccc1O)NNC(=O)c1ccc([N+](=O)[O-])cc1
The “hERG current change (%, negative = inhibition) at 1uM” value of the first is higher: 16.3% for the first, -6.3% for the second.

Going from `Cc1nnc2c(SC(C)C)nc3ccccc3n12` to `CCC(C)Sc1cc(C)c(C#N)c2nc3ccccc3n12` (stereo not drawn), the “hERG current change (%, negative = inhibition) at 1uM” value rises from 5.53% to 5.61%.

Compared with `CCCCCOC(=O)Cn1c(SCC(=O)Nc2ccccc2)nc2c1c(=O)[nH]c(=O)n2C`, `CCCCCCCCNC(=O)c1cccnc1SCC(=O)Nc1ccc(OC)cc1OC` is higher in “hERG current change (%, negative = inhibition) at 1uM” value: -5.18% for the first, 8.68% for the second.

Compared with `COc1ccc(NS(=O)(=O)c2cccc(C(=O)NCC(c3ccccc3)N(C)C)c2)cc1` (stereo not drawn), `COc1ccc(N(C)S(=O)(=O)c2cccc(C(=O)NCC(c3cccs3)N(C)C)c2)cc1` (stereo not drawn) is lower in “hERG current change (%, negative = inhibition) at 1uM” value: 6.81% for the first, -7.53% for the second.

Compared with `CN(C)S(=O)(=O)c1cccc(C(=O)Nc2cc(Cl)cc(Cl)c2)c1`, `CN(C)S(=O)(=O)c1ccc(NC(=O)CN2CCC(Cc3ccccc3)CC2)cc1` is lower in “hERG current change (%, negative = inhibition) at 1uM” value: 8.63% for the first, 3.5% for the second.

First: COc1cc([N+](=O)[O-])ccc1NC(=S)NNC(=O)c1ccc2c(c1)OCO2
Second: COc1cccc(OC)c1C(=O)NC(=S)NNC(=O)[C@H]1C[C@@H]1c1ccccc1
The “hERG current change (%, negative = inhibition) at 1uM” value of the first is higher: 14.4% for the first, 8.39% for the second.

Going from `Nc1nc(=S)c2ncn(C3CCCC3)c2[nH]1` to `CCc1noc(C)c1C(=O)Nc1nnc(C2CCCCC2)s1`, the “hERG current change (%, negative = inhibition) at 1uM” value falls from 13.8% to 3.54%.

Going from `N#Cc1ccc(C23CC4(C2)[C@H](CN(CC2CCCCC2)[C@@H]4c2ccccc2)C3c2ccc(Cl)nc2)cc1` (stereo partly drawn) to `COc1ccc2c(c1)OC[C@H]1[C@H]2N2C(=O)CN(C)C(=O)[C@@]2(C)[C@H]1c1ccccc1`, the “hERG current change (%, negative = inhibition) at 1uM” value rises from 6.07% to 13.5%.

Going from `CCCCNS(=O)(=O)c1ccc(NC(=O)Cc2ccc(OC)cc2)cc1` to `CCOc1ccc(NS(=O)(=O)c2ccc3ncsc3c2)cc1`, the “hERG current change (%, negative = inhibition) at 1uM” value rises from 7.06% to 12.1%.

Compared with `O=C(CCn1c(=O)sc2ccccc21)NCc1ccccc1`, `CCCn1c(=O)c(C(=O)NCCc2ccccc2)c(O)c2ccccc21` is higher in “hERG current change (%, negative = inhibition) at 1uM” value: 7.66% for the first, 13.1% for the second.

First: COc1cc(/C=C/c2sc3ccccc3[n+]2CCCS(=O)(=O)[O-])ccc1O
Second: Cc1nn(-c2nc3ccccc3s2)c(C)c1Oc1ccccc1O
The “hERG current change (%, negative = inhibition) at 1uM” value of the first is lower: -0.841% for the first, 13.2% for the second.

Going from `CC(C)(C)NC(=O)C(c1ccncc1)N(C(=O)Cn1nnc(-c2cccs2)n1)C1CCCCC1` (stereo not drawn) to `O=C(CCS(=O)(=O)c1cccs1)Nc1ccc(C(=O)NC2CCN(Cc3ccccc3)CC2)cc1`, the “hERG current change (%, negative = inhibition) at 1uM” value rises from -0.931% to 7.84%.

Compared with `COc1cccc(/C=C/C(=O)N2CCN(c3ccccn3)CC2)c1`, `COc1cccc(C(=O)N2CCN(c3ccc(N4CCOCC4)nn3)CC2)c1` is lower in “hERG current change (%, negative = inhibition) at 1uM” value: 6.36% for the first, -0.266% for the second.

Going from `Cc1cccc(N2CC(C(=O)Nc3ccc4c(c3)OCCO4)CC2=O)c1C` (stereo not drawn) to `Cc1ccc(N/N=C2\CC(=O)c3ccccc32)cc1Cl`, the “hERG current change (%, negative = inhibition) at 1uM” value rises from 14.5% to 17.1%.

First: O=C(CCCCCN1C(=O)c2cccc3cccc(c23)C1=O)NCCO
Second: O=C(O)CCCCCNS(=O)(=O)c1cccc2nsnc12
The “hERG current change (%, negative = inhibition) at 1uM” value of the first is higher: 9.8% for the first, 1.14% for the second.

Going from `O=S1OCCN1c1ccccc1` (stereo not drawn) to `Cc1cc[n+](CCC(=O)O)c2ccccc12.[Br-]`, the “hERG current change (%, negative = inhibition) at 1uM” value falls from 13.2% to 12.5%.

First: Cc1cc(C)n(C2CC(=O)N(c3ccc(C)c(Cl)c3)C2=O)n1 (stereo not drawn)
Second: COc1ccc(C2C3C(=O)N(N(C)c4ncc(C(F)(F)F)cc4Cl)C(=O)C3ON2C)cc1 (stereo not drawn)
The “hERG current change (%, negative = inhibition) at 1uM” value of the first is higher: 16.2% for the first, 11.8% for the second.

Going from `COc1ccc(NC(=O)CN2CCC(NC(=O)c3ccco3)CC2)c([N+](=O)[O-])c1` to `COc1ccc(CC(=O)NCC2CCCN(Cc3cc(OC)cc(OC)c3)C2)cc1` (stereo not drawn), the “hERG current change (%, negative = inhibition) at 1uM” value rises from 4.57% to 7.2%.

Compared with `COc1ccccc1C1C(C#N)=C(N)Oc2cc(C)n(Cc3ccccn3)c(=O)c21` (stereo not drawn), `N#Cc1c(-c2ccccc2)cc(-c2ccccc2)nc1SCCC(=O)O` is higher in “hERG current change (%, negative = inhibition) at 1uM” value: 3.9% for the first, 13.9% for the second.

First: CCCCNC(=O)Nc1nnc(C(C)(C)C)s1
Second: Cc1oc(C(C)(C)C)cc1C(N)=O
The “hERG current change (%, negative = inhibition) at 1uM” value of the first is lower: 3.44% for the first, 11.7% for the second.

First: COC(=O)c1cc2oc(C)cc2n1CC(=O)Nc1cc(C)cc(C)c1
Second: COCCOC(=O)c1c(C)oc2ccc(OCc3cc(C(=O)OC)oc3C)cc12
The “hERG current change (%, negative = inhibition) at 1uM” value of the first is higher: 16% for the first, 7.41% for the second.

Going from `Cc1ccc(NC(=O)c2nc[nH]c2C(=O)Nc2ccc(C)cc2)cc1` to `O=C(Nc1ccc2nc(-c3ccc4nc[nH]c4c3)[nH]c2c1)c1cccs1`, the “hERG current change (%, negative = inhibition) at 1uM” value rises from -1.71% to 17.2%.

Compared with `O=C(CC12CC3CC(CC(C3)C1)C2)N1CCOCC1`, `COC(=O)[C@@H]1C[C@@H]2CC[C@@H](O)C[C@@H]2N1Cc1ccc(N2CCN(C)CC2)cc1` is higher in “hERG current change (%, negative = inhibition) at 1uM” value: 6.44% for the first, 7.78% for the second.

Compared with `COc1ccc(-c2csc(NC(=S)NC(=O)c3ccc4ccccc4c3)n2)cc1OC`, `N#Cc1nc(Cc2cccc3ccccc23)oc1NCc1ccc2c(c1)OCO2` is lower in “hERG current change (%, negative = inhibition) at 1uM” value: 20.3% for the first, -6.62% for the second.

Going from `C=CCNC(=O)c1ccc(Sc2ccc(C)cc2)c([N+](=O)[O-])c1` to `Cc1ccc(C(=O)O/N=C(\N)c2ccc(C(F)(F)F)cn2)cc1`, the “hERG current change (%, negative = inhibition) at 1uM” value falls from 14.6% to 11.7%.

First: O=[N+]([O-])c1ccc(-n2nncc2-c2ccc(Cl)cc2)cc1
Second: O=C1CC(c2ccc(Cl)cc2)CC(O)=C1C=NCc1ccc(Cl)c(Cl)c1 (stereo not drawn)
The “hERG current change (%, negative = inhibition) at 1uM” value of the first is lower: -60.4% for the first, 9.59% for the second.

First: O=C1NC(=S)N/C1=C\c1ccccc1OCc1ccc(C(=O)O)cc1
Second: O=C1NC(c2ccccc2)=C(c2ccccc2)C1=O
The “hERG current change (%, negative = inhibition) at 1uM” value of the first is lower: 3.03% for the first, 11.4% for the second.

Compared with `CCCCOc1ccc(OCCNC(=O)c2ccco2)cc1`, `O=C(NCCCN1CCN(c2ccccc2F)CC1)Nc1ccc(F)cc1` is lower in “hERG current change (%, negative = inhibition) at 1uM” value: 14.6% for the first, -47.6% for the second.

Going from `CC1(c2ccc(Cl)cc2)NC(=O)CS1` (stereo not drawn) to `CCCc1[nH][nH]c(=O)c1C(c1ccc(Br)cc1)C(C#N)C#N` (stereo not drawn), the “hERG current change (%, negative = inhibition) at 1uM” value falls from 15.4% to 3.48%.

First: CCc1cc2c(N3CCN(c4nnc(CC)s4)CC3)ncnc2s1.Cl
Second: Cc1ccc2oc(C(=O)N3CCN(Cc4nccn4C)CC3)c(C)c2c1
The “hERG current change (%, negative = inhibition) at 1uM” value of the first is lower: -28.8% for the first, 4.3% for the second.

Compared with `FC(F)(F)c1cccc(NC(=S)Nc2ccc(Cl)cc2Cl)c1`, `CNC(=O)c1cc(C(=O)c2ccc(C(F)(F)F)cc2F)c[nH]1` is lower in “hERG current change (%, negative = inhibition) at 1uM” value: 17.7% for the first, 1.27% for the second.

Compared with `COc1cc(OC)c(C(=O)NC2CC(C)(C)NC(C)(C)C2)cc1OC`, `COc1ccc(OC)c(NC2=NC3(CCCCC3)N=C(N)N2)c1` is higher in “hERG current change (%, negative = inhibition) at 1uM” value: 3.94% for the first, 11.1% for the second.

First: Nc1nnc(SCc2cccnc2)s1
Second: O=C(Nc1ccccc1-c1ccccc1)c1cnccn1
The “hERG current change (%, negative = inhibition) at 1uM” value of the first is higher: 5.25% for the first, -1.32% for the second.

First: CSc1ccc(-c2nc(CSCC(=O)NCCCN3CCCC3=O)c(C)o2)cc1
Second: Cn1cc(CCNCc2cn[nH]c2-c2ccc(-c3ccccc3)cc2)cn1
The “hERG current change (%, negative = inhibition) at 1uM” value of the first is higher: -0.17% for the first, -8.02% for the second.

First: CC1=C(C)CC(C(=O)NC(C)CCc2ccccc2)C(C(=O)O)C1 (stereo not drawn)
Second: CCc1c(C)c2ccc(OCC(=O)OC(C)C)c(C)c2oc1=O
The “hERG current change (%, negative = inhibition) at 1uM” value of the first is higher: 10.2% for the first, 8.02% for the second.

For `Cc1cccc(NCc2ccc(Br)cc2)n1`, the “hERG current change (%, negative = inhibition) at 1uM” value was 10.1%.
